Measurements: publication PMC4336329 (PLoS ONE, 2015)
The whole screen tested about 310,000 compounds, of which about 14,000 (4.5%) showed an effect of 50% or more. The effect is printed as a negative number. This is one part of the list.

Biological target: human ether-à-go-go-related gene (hERG) potassium channel (human, UniProt Q12809)
Assay: primary screen, population patch clamp on CHO cells stably expressing hERG
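Further: peak tail current of the secondary pulse compared with the same well before compound.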

Sequence of human ether-à-go-go-related gene (hERG) potassium channel (Q12809 whole entry, looked up): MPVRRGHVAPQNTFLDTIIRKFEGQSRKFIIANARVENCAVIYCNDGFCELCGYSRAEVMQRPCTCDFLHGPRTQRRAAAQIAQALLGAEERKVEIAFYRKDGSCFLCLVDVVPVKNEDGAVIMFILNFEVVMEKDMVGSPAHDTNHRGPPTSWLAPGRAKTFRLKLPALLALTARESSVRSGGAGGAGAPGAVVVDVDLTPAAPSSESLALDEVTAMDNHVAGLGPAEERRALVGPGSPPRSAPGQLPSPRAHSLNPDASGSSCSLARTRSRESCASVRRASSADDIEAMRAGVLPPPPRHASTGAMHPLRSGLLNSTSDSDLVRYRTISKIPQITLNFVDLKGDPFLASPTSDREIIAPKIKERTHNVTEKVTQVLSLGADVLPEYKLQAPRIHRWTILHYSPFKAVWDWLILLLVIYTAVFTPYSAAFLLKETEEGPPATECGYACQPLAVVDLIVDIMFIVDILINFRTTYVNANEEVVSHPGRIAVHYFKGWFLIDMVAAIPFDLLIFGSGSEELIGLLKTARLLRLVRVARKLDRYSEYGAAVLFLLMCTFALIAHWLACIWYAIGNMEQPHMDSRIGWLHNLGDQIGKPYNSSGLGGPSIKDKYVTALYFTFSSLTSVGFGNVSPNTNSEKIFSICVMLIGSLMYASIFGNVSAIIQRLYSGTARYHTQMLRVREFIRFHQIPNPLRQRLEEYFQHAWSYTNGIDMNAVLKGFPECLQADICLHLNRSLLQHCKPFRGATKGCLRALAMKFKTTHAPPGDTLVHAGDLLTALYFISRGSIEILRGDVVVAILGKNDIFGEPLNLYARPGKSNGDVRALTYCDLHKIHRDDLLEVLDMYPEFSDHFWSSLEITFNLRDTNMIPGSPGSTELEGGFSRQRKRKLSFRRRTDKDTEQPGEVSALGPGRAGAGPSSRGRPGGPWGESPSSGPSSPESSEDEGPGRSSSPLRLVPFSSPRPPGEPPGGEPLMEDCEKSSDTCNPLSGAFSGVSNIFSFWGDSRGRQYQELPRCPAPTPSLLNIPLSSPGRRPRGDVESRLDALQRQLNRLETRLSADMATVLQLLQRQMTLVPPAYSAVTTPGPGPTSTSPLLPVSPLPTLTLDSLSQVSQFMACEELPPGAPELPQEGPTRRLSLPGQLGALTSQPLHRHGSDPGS

| SMILES | hERG current change (%, negative = inhibition) at 10uM [%] |
| --- | --- |
| Clc1ccc(CN2CCN(/N=C/c3cccnc3)CC2)cc1 | -17.2 |
| COC(=O)c1ccc(N2CCN(c3ccccc3)CC2)nc1 | -0.407 |
| Cc1cccc(Cn2nc(-n3cccc3)c3c(C)cc(C)nc32)c1 | 14.8 |
| C=CCN(c1ccccc1)S(=O)(=O)c1ccc2[nH]cc(C(=O)NCCOC)c(=O)c2c1 | 6.89 |
| COc1ccc(/[N+]([O-])=C/c2ccco2)cc1 | 11.9 |
| Cc1cc(C)cc(NC(=S)N2CCC(NC(=O)c3ccc(F)cc3)CC2)c1 | 11.5 |
| CCOC(=O)c1cc(C(=O)Nc2cccc(C)c2)nn1C | 9.84 |
| CCC(C)NC(=O)CNC(=O)c1nn(-c2ccc(OC)cc2OC)c(=O)c2ccccc12 (centres unmarked) | 24.1 |
| CCCCCCOC(=O)Cc1c(C)nc(-c2ccccc2)[nH]c1=O | -5.35 |
| CCc1ccc(NC(=O)CNC(=O)[C@@H]2Cc3ccccc3CN2)cc1 | -19.9 |
| C/C(=N\NC(=O)COc1ccc(C)cc1C(C)C)c1cc2ccccc2o1 | 7.44 |
| COc1ccc(CC(=O)N/N=C/C=C/c2cccc([N+](=O)[O-])c2)cc1OC | -14.8 |
| Cc1ccc([C@H]2C(C#N)=C(N)Oc3cc(C)oc(=O)c32)o1 | 12.5 |
| O=C(Nc1ccc(Cc2ccncc2)cc1)C1CC1 | 5.9 |
| C/C(=N/NS(=O)(=O)c1ccc(Cl)cc1)c1ccncc1 | -10.1 |
| Cc1cc(C)nc(Nc2ccccc2F)n1.Cl | 13.6 |
| Cc1cccn2c(=O)c3cc(S(=O)(=O)c4ccc(Br)cc4)c(=N)n(C4CCCCC4)c3nc12 | 18.6 |
| O=C(COC(=O)Cc1ccsc1)Nc1ccc(Cl)c(S(=O)(=O)N2CCOCC2)c1 | -32.9 |
| CC(NS(=O)(=O)c1ccc(Br)cc1)C(=O)NC1CCCCCC1 (centres unmarked) | 5.35 |
| COc1cc2c(cc1OC)C(c1ccc3c(c1)OCO3)C1=C(CC(C)(C)CC1=O)N2 (centres unmarked) | -12.2 |
| Cc1ccccc1CNC(=O)c1ccccc1C | 4.19 |
| Cc1ccc(/C=C(/C#N)c2nc(CCN3C(=O)c4ccccc4C3=O)cs2)cc1 | 21.6 |
| O=C(CSc1nnc(NC(=O)c2ccc(F)cc2)s1)NC1CCCC1 | 2.36 |

| SMILES | hERG current change (%, negative = inhibition) at 10uM [%] |
| --- | --- |
| Cc1[nH]c(C(=O)O)c(C)c1C(=O)OC(C)C | -7.42 |
| O=[N+]([O-])c1ccc(NC(=S)N2CCc3ccccc32)cc1 | -2.01 |
| Cc1cccc(-n2nc3c(c2NC(=O)CCCl)CSC3)c1 | -10.1 |
| COC(=O)c1ccc(/C=N/N2CCN(Cc3ccccc3)CC2)cc1 | -0.0709 |
| O=C(NCCSCc1ccccc1)c1cc(S(=O)(=O)N2CCOCC2)ccc1F | -21.3 |
| CC(C)CCNC(=O)[C@H](CC(C)C)NC(=O)[C@H]1O[C@@H]1C(=O)O | 30.7 |
| O=C(O)C(=O)O.O=C(c1ccncc1)N1CCN(C2CCCCC2)CC1 | -23.4 |
| O=C(COc1ccccc1)N=C1SC2CS(=O)(=O)CC2N1c1ccc(F)cc1 (centres unmarked) | 15.3 |
| Cc1ccc(NS(=O)(=O)c2cccc3cccnc23)c(Cl)c1 | 7.81 |
| Cc1cccc(NC(=O)CSc2nc(N)c(NC(=O)c3cccs3)c(=O)[nH]2)c1C | 6.28 |
| COc1ccc(S(=O)(=O)N(C)CC(=O)NCCC2=CCCCC2)cc1 | 10.5 |
| O=S1(=O)CCC(NCC2CCCO2)C1 (centres unmarked) | 4.98 |
| CSc1ccccc1OCc1cc(C(=O)N2CCC(Oc3cccnc3)CC2)no1 | -37.4 |
| CC(OC(=O)c1ccc(Br)o1)C(=O)Nc1ccc2c(c1)OCCO2 (centres unmarked) | -11.1 |
| CC(=O)N/N=C(\C)c1ccc2c(c1)OCCO2 | 11 |
| COC(=O)CSc1nc(C2CC2)cc(C(F)(F)F)c1C#N | -3.56 |
| Cc1ccc(-c2c(C(=O)N3CCOCC3)oc(=O)c3ccccc23)cc1 | -17.8 |
| Cc1ccc(S(=O)(=O)N(C)CC(=O)Nc2ccncc2)cc1 | -8.2 |
| CCCn1c(SCC(=O)Nc2ccccc2N2CCCCC2)nc2c1c(=O)n(C)c(=O)n2C | -29.9 |
| COc1ccc(-c2cc(C(F)F)n3ncc(C(=O)NCCCN4CCCC4=O)c3n2)cc1 | -40.5 |
| O=S(=O)(NCc1ccco1)c1cccc(S(=O)(=O)N2CCOCC2)c1 | -21.7 |
| O=c1[nH]c(C2CCN(S(=O)(=O)c3ccccc3C(F)(F)F)CC2)nc2c1nnn2Cc1cccc(F)c1 | 3.83 |
| CCn1c(COc2ccccc2)nnc1SCC(=O)NC1CCCCC1 | 9.54 |

| SMILES | hERG current change (%, negative = inhibition) at 10uM [%] |
| --- | --- |
| COc1cc(/C=N/NC(=O)c2cc[n+]([O-])cc2)ccc1O | 21.8 |
| CCN(C(=O)C(C)OC(=O)CCCNC(=O)c1ccc(Cl)cc1)c1ccccc1 (centres unmarked) | -25.1 |
| CSCC[C@H](NC(=O)N1CCn2c1nc1ccccc12)C(=O)NCc1ccc2c(c1)OCO2 | -32.4 |
| Cc1cc(OCCCCCNCCO)cc(C)c1Cl | -28.9 |
| COc1ccc(CNC(=O)C2CCCN(c3ncnc4c3nc3n4CCCCC3)C2)cc1 (centres unmarked) | -37.6 |
| O=C1CCC(=O)N1CCCCCc1nc(-c2ccccc2)no1 | 2.45 |
| CC(C)CN(C(=O)COC(=O)CCc1c[nH]c2ccccc12)C1CCS(=O)(=O)C1 (centres unmarked) | -17.3 |
| O=[N+]([O-])c1cc(S(=O)(=O)NC2=NCCCCC2)ccc1NCC1CCCCC1 | -19.9 |
| O=c1[nH]nc(Cc2ccc(Cl)cc2Cl)c2ccccc12 | 12.1 |
| Cc1ccc(C)n1CCN1CCN(C(=O)c2ccco2)CC1 | 4.13 |
| O=S(=O)(c1cccc2nsnc12)N1CCCC1 | 3.86 |
| Cc1c(C(=O)N2CCNCC2)oc2ccccc12.Cl | 14.5 |
| O=C(NCn1cnccc1=O)c1ccccc1 | 21.2 |
| CC(CC(=O)O)CC(=O)Nc1cc(C(F)(F)F)cc(C(F)(F)F)c1 (centres unmarked) | 31 |
| CCO/C(C)=N/n1c2nc3ccccc3nc2c2c(=O)n(C3CCCC3)c(C)nc21 | 7.29 |
| Cn1c(O)c(/C=C2\C=Nc3ccccc32)c(=O)n(C)c1=O | 15.4 |
| Cc1ccc(NC(=O)Nc2nc(-c3ccc(C)s3)cs2)cc1 | -4.11 |
| O=C(Nc1ccc(S(=O)(=O)NC2=NCCCCC2)cc1)c1ccc(Cl)cc1Cl | -14.8 |
| CC1(C)Cc2ccccc2-c2nnc(-c3ccc4ccccc4n3)n21 | 7.03 |
| COc1cccc(CN2CCN(C(=O)c3ccco3)CC2)c1OC | -9.75 |
| COC(=O)C[C@H]1c2ccc(C(F)(F)F)cc2S(=O)(=O)N1Cc1ccccc1 | -42.6 |
| CC(C)Cc1nnc(NS(=O)(=O)c2ccc([N+](=O)[O-])cc2)s1 | 10.5 |
| COc1cc2c(cc1OC)CN(C(=O)CCCOc1ccc(Cl)cc1Cl)CC2 | 1.39 |

| SMILES | hERG current change (%, negative = inhibition) at 10uM [%] |
| --- | --- |
| CCN(CC)S(=O)(=O)c1cccc(NC(=O)COC(=O)CCC(=O)c2ccc(F)cc2)c1 | -16 |
| COc1ccc(C2(O)CN(c3ccc(C)cc3)C3=[N+]2CCCC3)cc1.[Br-] (centres unmarked) | -37.5 |
| CCn1c(SCC(=O)O)nnc1-c1ccc(S(=O)(=O)N2CCCC2)cc1 | 16.3 |
| O=C(CSc1nccc(=O)[nH]1)c1c[nH]c2ccccc12 | -7.7 |
| COc1ccc(Br)c(C(=O)NC2CCCC2)c1 | 15 |
| COc1ccc(-c2c(-c3cccc(C)c3)oc3ccc(-c4ccc5c(c4)OCO5)cc23)cn1 | 11.3 |
| O=C(CCN1C(=O)c2ccccc2S1(=O)=O)NCc1ccco1 | 2.94 |
| N#Cc1cccc(NC(=O)Cn2cnc(S(=O)(=O)N3CCOCC3)c2)c1 | 6.55 |
| CCCCN1Cc2cc(C(=O)c3cc(OC)ccc3O)cnc2NC1=O | -2.3 |
| CC(=O)Nc1ccc(-c2sc(Nc3ccccc3)n[n+]2C)cc1.[Cl-] | 27.5 |
| Cc1ccc(C2(C)NC(=O)N(CC(=O)Nc3ccc4c(c3)CCC4)C2=O)cc1 (centres unmarked) | 0.491 |
| O=C(c1cccs1)N1CCN=C1SCc1ccccc1F | 8.48 |
| O=C(CCN1CCCC1)c1cccs1 | 13.5 |
| COC(=O)c1c(SCC(=O)NC2CCCCC2)[nH]c2ccccc2c1=O | -0.717 |
| CC1=C(C(=O)OCCOC(C)C)C(c2cccnc2)C2=C(CCCC2=O)N1 (centres unmarked) | 11.4 |
| COC(=O)N/N=C\c1cccc(OC(=O)c2cccs2)c1 | 3.14 |
| COCCN(C(=O)CCC(=O)Nc1cc(C)on1)C(C(=O)NC(C)(C)C)c1ccc(OC)cc1 (centres unmarked) | 21.4 |
| Cc1cc(NC(=O)CSc2nnc(-c3ccoc3C)o2)no1 | 10.9 |
| O=C(COc1ccc(Cl)cc1Cl)Nc1c(-c2cccs2)nc2ccccn12 | 17.4 |
| COc1ccccc1C(=O)NCC(=O)NCCCN1CCOCC1 | 5.21 |
